Here are results for 82 molecules from PubChem BioAssay AID1346428 (National Center for Advancing Translational Sciences (NCATS), 2018).

Out of some 48,000 compounds screened, about 1,200 (2.5%) were called active. About 2% were inconclusive and are not listed.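 Rule for the calls: active = activation of at least 60% and not above a set upper limit (about 1 call in 100 departs from these limits); inconclusive = activation of 40% to 60%, or above that upper limit; inactive = activation under 40%.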 This is one part of the list.

The target in this experiment is Probable G-protein coupled receptor 32 (Homo sapiens) (UniProt O75388). Nature of the experiment: qHTS for Agonists of Human Resolvin D1 Receptor DRV1. Note: 0% is about no effect. Conditions: CHO-K1 GPR32 beta-arrestin PathHunter luminescence, 90 min; at 76.9 µM; hits give high values; zero percent set by DMSO-only wells. Put shortly: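 Agonism was scored as beta-arrestin recruitment to ProLink-fused GPR32 in stably transfected CHO-K1 cells, giving a chemiluminescent beta-Gal signal; compounds were incubated 90 min at 37 °C.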
UniProt O75388, sequence (O75388 whole entry, looked up, the tested form may be a part): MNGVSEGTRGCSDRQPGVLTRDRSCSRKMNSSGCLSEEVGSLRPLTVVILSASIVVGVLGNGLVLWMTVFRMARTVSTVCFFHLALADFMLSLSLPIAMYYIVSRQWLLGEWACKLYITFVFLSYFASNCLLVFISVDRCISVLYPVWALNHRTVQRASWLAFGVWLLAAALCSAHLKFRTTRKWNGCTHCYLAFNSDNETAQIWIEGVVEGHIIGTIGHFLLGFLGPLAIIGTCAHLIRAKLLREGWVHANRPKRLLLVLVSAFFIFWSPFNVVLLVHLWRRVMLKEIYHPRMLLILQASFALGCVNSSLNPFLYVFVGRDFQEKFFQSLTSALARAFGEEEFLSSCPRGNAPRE
On the technique in general: Quantitative high-throughput screening tests each substance at several concentrations.
For `Cc1ccc(N(CC(C)C)S(=O)(=O)c2nnc(NC(=O)c3ccco3)s2)cc1`, the activation is inactive: 34.7%.
For `CCc1cccc(CC)c1NC(=O)C1CCC(CNS(=O)(=O)c2cccc3nsnc23)CC1` (configuration not stated), the activation is inactive: -30.5%.
Regarding `COc1ccc2cc3cc(C(=O)Nc4cc(C)c(Cl)cc4OC)oc3nc2c1`, the activation is inactive: 0.0995%.
Then `Cc1sc2c(c1C)c(=O)n(-c1ccc(Cl)cc1)c(=O)n2Cc1cc(=O)n2cc(Br)ccc2n1`, with inactive: -5.21%.
Then `COc1cc(Cl)c(NC(=O)c2cc(S(=O)(=O)N3CCCCC3)c[nH]2)c(OC)c1`, with inactive: -30.1%; and `CC(=O)c1cccc(NS(=O)(=O)c2cc(-c3onc(C)c3C)ccc2C)c1`, with inactive: -0.961%.
Then `COc1ccc(NC(=O)CSc2oc(-c3ccc(F)cc3)nc2S(=O)(=O)c2ccc(C)cc2)c(OC)c1`, with inactive: -1.17%.
As for `CCOc1ccccc1NC(=O)CSc1nc2c(sc3ccccc32)c(=O)n1CCCC(=O)NC1CCCC1`, the activation is inactive: -6.61%.
For the molecule `CCOC(=O)c1c(S(=O)(=O)N2CCCC(C(=O)NCc3ccccc3Cl)C2)c(C)n(C)c1C` (configuration not stated), the activation was inactive: -5.9%.
Take `O=C(Nc1ccccc1)N(Cc1c[nH]c2ccccc12)C1CCCCCC1`: the activation was inactive: -14.3%.
In the case of `COc1cccc(CNC(=O)c2ccc(CNS(=O)(=O)c3ccc(C)cc3)cc2)c1`, the activation was inactive: -10.4%.
For the molecule `CCN(c1ccccc1)S(=O)(=O)c1nnc(NC(=O)c2ccccc2)s1`, the activation was inactive: 2.13%.
For the molecule `Cc1cccc(N2CCN(C(=O)c3cnn(-c4ccccc4Cl)c3C3CCN(C(=O)OC(C)(C)C)CC3)CC2C)c1` (configuration not stated), the activation is inactive: -12.5%.
Then `Cc1cccc(OCc2nc(CC(=O)Nc3ccc(C)cc3C)cs2)c1`, with inactive: -10.8%; and `COc1ccc(CNCCCSc2nnnn2-c2ccccc2)cc1`, with inactive: -6.19%; and `CC1CCc2c(sc3nnn(CCCCOc4ccc(Cl)cc4)c(=O)c23)C1` (configuration not stated), with inactive: -0.197%.
Then `COc1ccc(S(=O)(=O)NCCc2sc(-c3cccnc3)nc2C)c(F)c1`, with inactive: 25.6%.
With `CCc1ccc(C2c3c(oc4ccc(F)cc4c3=O)C(=O)N2CCc2ccc(OC)cc2)cc1` (configuration not stated), the activation is inactive: 2.49%.
For `CCN(CC)CCNC(=O)C(=O)NCC(c1cccnc1)N1CCN(c2ccc(F)cc2)CC1` (configuration not stated) the value was inactive: -1.67%; for `O=C(Nc1ccccc1C(F)(F)F)c1cc(-c2ccc3c(c2)OCCO3)on1`, inactive: 4.67%; for `CCOC(=O)c1c(NC(=O)c2cc(OCC)c(OCC)c(OCC)c2)sc2c1CCCCC2`, inactive: -24.1%.
For the molecule `Cc1ccc(CNC(=O)Cn2c(=O)ccc3cc(S(=O)(=O)N4CCC(C)CC4)ccc32)cc1`, the activation was inactive: -13.2%.
For `COc1ccc(-c2cc(C(=O)NC(C)c3ccccc3)c3cc(C(C)C)ccc3n2)cc1` (configuration not stated) the value was inactive: -5.7%; for `Cc1cc(=O)c2cc(C(=O)Nc3ccc(C)c(C)c3)ccc2[nH]1`, inactive: 16.3%.
On to `Cc1nn(-c2ccccc2)c2c1cc1c(=O)[nH]c(=O)nc-1n2-c1cccc(Cl)c1`, for which the activation was inactive: -4.67%.
For `COc1ccccc1/C=C/c1nc(C#N)c(N2CCN(C)CC2)o1` the value was inactive: -8.23%; for `Cc1ccc(CNC(=O)C2CCN(S(=O)(=O)c3cccc4nonc34)CC2)cc1`, inactive: -12.6%; for `COc1ccccc1NC(=O)CSc1nnc(NC(=O)NC2CCCCC2)s1`, inactive: -0.644%.
`Cc1ccc2oc(C(=O)Nc3ccc(S(=O)(=O)N(C)c4ccccc4)cc3)cc(=O)c2c1`: the activation was inactive: 2.03%.
On to `CCc1ccc(NCc2cc3cc4c(cc3n(CC(=O)Nc3ccccc3OC)c2=O)OCCO4)cc1`, for which the activation is inactive: -25.4%.
For `COc1ccc(C(=O)N2CCC(c3nc4ccccc4s3)CC2)cc1Cl` the value was active: 75.5%; for `Cc1cc(NC(=O)Nc2nnc(N(C)C3CCCCC3)s2)ccc1Br`, inactive: -0.749%; for `CC(CC1c2ccccc2CCc2ccccc21)CN(C)C` (configuration not stated), inactive: -13.3%.
`Cc1cccc(NC(=O)Cn2ncc3c4ccccc4n(Cc4ccccc4)c3c2=O)c1C`: the activation was inactive: -10.4%.
For `Cc1ccc(S(=O)(=O)CCC(=O)Nc2ccc(OC(F)(F)F)cc2)cc1` the value was inactive: 6.91%; for `CN1C(=O)c2ccccc2C1=O`, inactive: 14%; for `O=C(c1ccc2c(c1)N(Cc1ccccc1F)C(=O)c1ccccc1S2(=O)=O)N1CCc2ccccc21`, inactive: -46.9%.
For `CCC(Sc1nc2ccncc2[nH]1)C(=O)Nc1cc(Cl)ccc1C` (configuration not stated), the activation was inactive: 18%.
For `COc1cc(Cl)c(C)cc1NC(=O)CSc1nc2c(c(=O)[nH]1)CCC2` the value was inactive: 28.5%; for `CCOC(=O)O[C@]1(C(=O)OCCl)CC[C@H]2[C@@H]3CCC4=CC(=O)C=C[C@]4(C)[C@H]3[C@@H](O)C[C@@]21C`, inactive: -3.32%.
Take `CN(C)[C@@H]1C(=O)C(C(N)=O)=C(O)[C@@]2(O)C(=O)C3=C(O)c4c(O)cccc4C[C@H]3C[C@@H]12`: the activation was inactive: 16%.
For `CCc1ccccc1NC(=O)Cn1c(=O)n(CCCCCC(=O)NCc2ccc(C)cc2)c(=O)c2sccc21` the value was inactive: 7.02%.
`CCOC(=O)c1cccc(NC(=O)CC2C(=O)N(c3ccc(Cl)cc3)C(=O)N2C2CCCC2)c1` (configuration not stated): the activation was inactive: -16.7%.
Take `CCc1ccc(S(=O)(=O)c2nnn3c2nc(N2CCOCC2)c2sccc23)cc1`: the activation is inactive: 1.65%.
For `Cc1ccc(N2CC(c3nc(-c4ccc(Cl)cc4)no3)CC2=O)cc1F` (configuration not stated) the value was inactive: 6.14%; for `Cc1cc(N2CCC(C(=O)Nc3ccc(F)cc3C)CC2)n2nc(C)c(-c3ccc(Cl)cc3)c2n1`, inactive: 16.8%; for `Fc1ccc(CN(C2=NCCN2)c2c(Cl)cccc2Cl)cc1`, inactive: -3.42%.
Take `Cc1cc(Br)ccc1NC(=O)C1CCCN(S(=O)(=O)c2cccc3nonc23)C1` (configuration not stated): the activation is inactive: 28.4%.
On to `Cc1cc(-c2ccccc2)n2nc(-c3ccc(Cl)cc3)cc2n1`, for which the activation is inactive: -7.48%.
As to `CCc1ccccc1NC(=O)Nc1cc(C(=O)NCc2cccc(F)c2)ccc1N1CCCC1`, the activation is inactive: -16.8%.
For `CCOC(=O)c1c(NC(=O)COc2ccc(Br)cc2)sc2c1CCCC2` the value was inactive: 12.4%; for `COCCCn1c(=N)c(C(=O)NCc2ccco2)cc2c(=O)n3cccc(C)c3nc21`, inactive: 20.4%; for `Cc1oc(-c2cccc(Cl)c2)nc1CN1CCCC(C(=O)NCCc2ccc(Cl)cc2)C1` (configuration not stated), inactive: 5.13%.
Then `O=C(Cn1ncn2nc(-c3cccs3)cc2c1=O)NCc1ccc(Cl)cc1`, with inactive: 3.1%; and `CCc1ccc(S(=O)(=O)c2nnn3c2nc(Nc2ccc(C)c(Cl)c2)c2sccc23)cc1`, with inactive: -4.63%.
As for `CC(C)CNC(=O)C(=O)Nc1c2c(nn1-c1ccccc1)CS(=O)(=O)C2`, the activation is inactive: -8.65%.
As to `CCn1c(SCc2cccc(Br)c2)nnc1-c1nonc1NC(C)=O`, the activation is inactive: -6.94%.
For `CSc1cccc(NC(=O)Cn2c(=O)n(Cc3ccccc3)c(=O)c3sc4ccccc4c32)c1`, the activation is inactive: 26.9%.
As for `CCOC(=O)CN1C(C(=O)c2ccccc2)=C(OC(=O)C(C)(C)C)c2ccccc2S1(=O)=O`, the activation is inactive: 0.978%.
For `CC(=O)Nc1cc(C(=O)NCc2ccc(C)cc2)ccc1S(=O)(=O)c1ccc(Cl)cc1` the value was inactive: -7.21%.
For `Cc1cc(C)n(-c2nc3cc(Cl)ccc3nc2Nc2ccc(C)c(F)c2)n1` the value was inactive: 15.9%; for `Cc1ccc(-n2ncc(C(=O)NCCN3CCCC3)c2C2CCN(C(=O)OC(C)(C)C)CC2)cc1`, inactive: -21.7%.
For `Cc1cc(C)c(NC(=O)c2cc(S(=O)(=O)NCCC3=CCCCC3)ccc2F)c(C)c1` the value was inactive: 7.01%.
As to `CCn1ccc2cc(S(=O)(=O)N3CCC(C(=O)NCc4cccc(Cl)c4)CC3)ccc21`, the activation is inactive: 2.56%.
As to `Cc1cccc(-n2ncc(C(=O)N3CCN(Cc4ccccc4)CC3)c2C2CCN(C(=O)OC(C)(C)C)CC2)c1`, the activation is inactive: -13.2%.
For `CCOc1ccc(N(C)S(=O)(=O)c2c(C(=O)N3CCC(C)CC3)c(C)n(C)c2C)cc1` the value was inactive: -21.5%.
Consider `CCOc1ccccc1NC(=O)N1c2ccccc2Sc2ccccc21`, for which the activation was inactive: -17.4%.
For `COc1ccc(Cn2c(CCC(=O)Nc3ccc(C)cc3)nc3cccnc32)cc1` the value was inactive: -7.5%.
For `Cc1ccc(NC(=O)Cn2nnc3sc4c(c3c2=O)CCC(C)C4)cc1` (configuration not stated) the value was inactive: -6.06%; for `Cc1ccc(C2CCN(C(=O)Nc3ccc(Cl)cc3)C2)cc1` (configuration not stated), inactive: 5.88%; for `Cc1c(Cl)cccc1NC(=O)CNS(=O)(=O)c1cccs1`, inactive: -4.64%.
As for `Cc1nc2sccn2c(=O)c1S(=O)(=O)Nc1ccc(N2CCOCC2)cc1`, the activation was inactive: -16%.
Then `Cc1cc(=O)[nH]c2nnc(SCc3c(F)cccc3Cl)n12`, with inactive: 2.39%; and `CCOC(=O)CCn1cnc2onc(-c3cc(OC)ccc3Cl)c2c1=O`, with inactive: -0.14%; and `Cc1ccc(OCc2nc(-c3ccc(C(=O)N4CCN(c5cccc(C(F)(F)F)c5)CC4)cc3)oc2C)cc1`, with inactive: -7.48%.
Then `CCOc1ccc2c(c1)sc1nc(=O)n(-c3ccc(Cl)c(Cl)c3)c(=O)n12`, with inactive: 12.8%; and `CCCCCCCCCCCCCCC[C@H](O)[C@@H](N)CO`, with inactive: -6.9%; and `CSc1cccc(NC(=O)C2CCN(S(=O)(=O)c3ccc4c(c3)CCCN4C(=O)C3CCC3)CC2)c1`, with inactive: -15.2%.
With `COc1ccc(N(CC(C)C)S(=O)(=O)c2nnc(NC(=O)c3cccs3)s2)cc1`, the activation was inactive: 29%.
Turning to `O=C(Nc1ccc2nc(SCC(=O)N3CCc4ccccc43)sc2c1)c1cccc(F)c1`, the activation was inactive: 4.12%.
Then `COc1ccc(Cl)cc1NC(=O)CSc1nc2ccccc2c2nc(-c3ccccc3)nn12`, with inactive: -9.85%.
For `Cc1cccc(NC(=O)c2ccc3c(O)c(S(=O)(=O)c4ccccc4)c(=O)[nH]c3c2)c1C` the value was inactive: -7.64%.
